The list shows a part of the results.
Legend:
[1] = system: HSkMC (human skeletal muscle cells); assay: cytotoxicity call (relative viability < 0.9); details: 10 µM
[2] = system: HepG2; assay: cytotoxicity call (relative viability < 0.9); details: 10 µM
[3] = system: S. aureus RN4220; assay: growth inhibition call (relative growth <= 0.2); details: 50 µM

C[C@H](O)C#Cc1cnc2c(c1)C(=O)N([C@@H](C)CO)C[C@H](C)[C@@H](CN(C)C(=O)Nc1ccc(C(F)(F)F)cc1)O2
inactive: cytotoxicity call [1] | cytotoxicity call [2] | growth inhibition call [3]

CC(=O)c1ccc(F)c(Cl)c1
inactive: cytotoxicity call [1] | cytotoxicity call [2] | growth inhibition call [3]

C[C@@H]1CN([C@@H](C)CO)C(=O)c2cc(NS(=O)(=O)c3cccs3)ccc2O[C@H]1CN(C)S(=O)(=O)c1cccs1
inactive: cytotoxicity call [1] | cytotoxicity call [2] | growth inhibition call [3]

C[C@@H]1CN([C@H](C)CO)C(=O)c2cc(C#Cc3ccccc3F)cnc2O[C@H]1CN(C)C(=O)C1CCOCC1
inactive: cytotoxicity call [1] | cytotoxicity call [2] | growth inhibition call [3]

CN(C)C(=O)CN1CCCN(CCn2nc3ccccn3c2=O)CC1
inactive: cytotoxicity call [1] | cytotoxicity call [2] | growth inhibition call [3]

C[C@H]1CN([C@@H](C)CO)C(=O)c2cc(NS(C)(=O)=O)ccc2O[C@H]1CN(C)C(=O)Nc1ccccc1
inactive: cytotoxicity call [1] | cytotoxicity call [2] | growth inhibition call [3]

Source: the antibiotic and cytotoxicity screens of Wong et al. (2023)
